The structures appear in SMILES notation. Out of some 310,000 compounds screened, about 2,200 (0.71%) showed an effect of 50% or more. Effects have a minus sign here. The list shows a part of the results.

The target in this assay is human ether-à-go-go-related gene (hERG) potassium channel (human, UniProt Q12809). Kind of assay: primary screen, population patch clamp on CHO cells stably expressing hERG.
human ether-à-go-go-related gene (hERG) potassium channel, sequence (Q12809 whole entry, looked up): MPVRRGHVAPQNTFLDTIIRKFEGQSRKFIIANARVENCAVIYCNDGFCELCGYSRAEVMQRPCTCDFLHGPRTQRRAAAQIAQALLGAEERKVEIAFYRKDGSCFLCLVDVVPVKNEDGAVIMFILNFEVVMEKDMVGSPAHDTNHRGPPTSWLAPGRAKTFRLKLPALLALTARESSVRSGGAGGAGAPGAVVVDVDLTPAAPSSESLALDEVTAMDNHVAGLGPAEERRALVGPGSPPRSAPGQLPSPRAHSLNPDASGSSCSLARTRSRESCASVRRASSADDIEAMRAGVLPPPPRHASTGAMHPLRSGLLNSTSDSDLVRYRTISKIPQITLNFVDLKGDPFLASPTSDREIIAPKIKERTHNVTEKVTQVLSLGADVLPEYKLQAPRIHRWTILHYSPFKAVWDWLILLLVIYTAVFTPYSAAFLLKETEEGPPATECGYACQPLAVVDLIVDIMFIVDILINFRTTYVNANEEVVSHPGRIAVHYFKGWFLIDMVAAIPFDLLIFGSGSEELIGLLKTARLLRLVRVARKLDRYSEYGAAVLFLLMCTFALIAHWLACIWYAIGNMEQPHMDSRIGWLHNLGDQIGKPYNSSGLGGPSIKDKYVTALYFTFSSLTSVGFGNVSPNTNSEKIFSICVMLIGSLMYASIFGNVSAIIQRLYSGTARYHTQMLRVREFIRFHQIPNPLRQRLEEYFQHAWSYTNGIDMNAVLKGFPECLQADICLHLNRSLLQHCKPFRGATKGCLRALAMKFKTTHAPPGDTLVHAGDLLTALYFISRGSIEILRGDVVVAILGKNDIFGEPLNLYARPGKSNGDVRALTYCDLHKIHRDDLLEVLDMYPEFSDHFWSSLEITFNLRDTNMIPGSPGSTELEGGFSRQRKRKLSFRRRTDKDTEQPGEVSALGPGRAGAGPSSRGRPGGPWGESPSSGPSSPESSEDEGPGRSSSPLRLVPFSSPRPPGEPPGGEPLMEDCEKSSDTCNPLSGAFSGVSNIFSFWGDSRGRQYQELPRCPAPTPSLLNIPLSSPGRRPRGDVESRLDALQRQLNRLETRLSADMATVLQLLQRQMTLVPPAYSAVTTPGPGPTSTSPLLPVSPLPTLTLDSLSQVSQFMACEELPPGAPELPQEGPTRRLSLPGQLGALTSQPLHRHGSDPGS
On to `Cc1ccc(NS(=O)(=O)c2cccc(C(=O)OCC(=O)NCc3ccco3)c2)cc1`, for which the “hERG current change (%, negative = inhibition) at 1uM” value is listed as -3.61%.
The value for `c1ccc2c(NC3=NCCCCS3)cccc2c1` was 0.599%; that for `CC(C)(C)C(=O)[C@@H]1[C@@H]2C(=O)N(C3CCCCC3)C(=O)[C@@H]2[C@H]2c3ccccc3C=CN12` was -5.74%; that for `Cc1ccc2c(cnn2C(=O)CCC(=O)NC2CCCCC2)c1` was 10.3%.
The figure for `COc1ccc(N2CCN(C(=S)Nc3cc(C)cc(C)c3)CC2)cc1` is 6.78%.
The value for `CCNC(=O)NC(=O)C(C)Sc1ncc(C(F)(F)F)cc1Cl` (stereo not drawn) was 12.4%.
For `CCOc1cc(C=O)ccc1OCCSc1ccc(C)cc1`, the “hERG current change (%, negative = inhibition) at 1uM” value is -3.31%.
With `COc1ccc(OC)c(NS(=O)(=O)c2cccs2)c1`, the “hERG current change (%, negative = inhibition) at 1uM” value is reported as -2.39%.
The value for `Cc1cc(NC(=O)CSc2nnc(COc3ccccc3)n2Cc2ccco2)no1` was -0.27%; that for `O=C(CN1C(=O)c2ccccc2C1=O)NCC1CCCO1` (stereo not drawn) was 1.38%.
On to `COC(=O)c1sc(C(F)(F)F)c(-c2ccccc2)c1S(=O)(=O)N1CCCC1`, for which the “hERG current change (%, negative = inhibition) at 1uM” value is on record as 7.99%.
The figure for `CC(C)c1ccc(NC(=S)Nc2ccc3cn[nH]c3c2)cc1` is 7.64%; for `Cc1cc(NC(=O)c2ccc([N+](=O)[O-])cc2Cl)ccc1NC(=O)c1ccco1` it is 8.64%; for `CC(=O)c1nn(-c2ccc(C(F)(F)F)cc2)c(=O)[nH]c1=O` it is 21.2%.
Turning to `CCC(C)NS(=O)(=O)c1ccc(S(=O)(=O)N2CC=C(c3ccc(F)cc3)CC2)cc1` (stereo not drawn), the “hERG current change (%, negative = inhibition) at 1uM” value amounted to 11%.
Turning to `COc1ccc(C(=O)Nc2cc(OC)c(Cl)cc2Cl)cc1`, the “hERG current change (%, negative = inhibition) at 1uM” value was 12.1%.
The value for `CC(C)OCCCN1C(=O)c2ccccc2C1C(=O)NC1CCCCC1` (stereo not drawn) was 4.86%; that for `O=S(=O)(NCc1ccc(Cl)cc1Cl)c1ccc(N2CCOCC2)nc1` was -8.65%.
The value for `Cc1ccc(C(=O)C2=C(O)C(=O)N(Cc3cccnc3)C2c2ccc(N(C)C)cc2)o1` (stereo not drawn) was 7.88%; that for `CCCOc1ccc(C2=CSC3=NCCN23)cc1.Cl` was -0.939%; that for `CCN(CC(=O)Nc1c(F)cccc1F)C(=O)c1ccc2c(c1)S(=O)(=O)N=C1CCCCCN12` was 15.2%.
The figure for `CN1CCN(C(=O)/C(=C/c2ccc(F)cc2)c2ccsc2)CC1.Cl` is -52.8%; for `CCOC(=O)CSc1nc(C)c(CC)c(C)c1C(N)=O` it is 11.8%.
Regarding `O=C(NNc1ncnc2c1cnn2-c1ccc(F)cc1)c1cccs1`, the “hERG current change (%, negative = inhibition) at 1uM” value is listed as 5.51%.
On to `COc1ccc(-c2nc(CS(=O)CC(=O)NCc3ccc(C)cc3)c(C)o2)cc1OC` (stereo not drawn), for which the “hERG current change (%, negative = inhibition) at 1uM” value is recorded as -7.07%.
The value for `CC(C)CC(=O)N1CCN(Cc2ccccc2Cl)CC1` was 17.5%.
The figure for `CC(C)C(NS(=O)(=O)c1ccc2c3c(cccc13)C(=O)N2)C(=O)O` (stereo not drawn) is 10.2%; for `COCCC1CCCCN1C(=O)c1ccc2nc(Cc3ccccc3F)oc2c1` (stereo not drawn) it is 18.4%; for `COC(=O)c1c(C)c[nH]c1C` it is 10.9%.
The figure for `CC(=O)Nc1ccc(OCCC[n+]2cccc(C(=O)[O-])c2)cc1` is 12.6%; for `CCOC(=O)c1sc(NC(=O)c2cc(-c3cccc(O)c3)on2)c(C(=O)OCC)c1C` it is 14.9%.
For `COc1ccc(C(=O)Nc2ccc(-c3ccc(NC(=O)c4ccc(OC)cc4)c(OC)c3)cc2OC)cc1`, the “hERG current change (%, negative = inhibition) at 1uM” value is given as 15.7%.
The value for `O=C(Nc1nc(-c2ccccc2)cs1)c1cccs1` was -0.447%.
The value for `CC(C)NCCCCOc1cccc(Br)c1.O=C(O)C(=O)O` was -2.31%; that for `CCOc1ccc(NS(=O)(=O)c2cc(C(=O)NCCCN3CCOCC3)ccc2C)cc1` was 11.1%; that for `COc1ccc(C(=O)CSc2nnc(-c3cc(C)cc(C)c3)o2)cc1` was 12.6%.
The figure for `Cc1ccc([N+](=O)[O-])cc1-c1ccc(/C=N/NC(=O)c2cc3c(ccc4ccccc43)o2)o1` is 19.7%; for `Cc1ccc2c(c1)N(N=O)CCC2` it is 0.848%; for `O=C(C1CCCN(S(=O)(=O)c2cccc3nsnc23)C1)N1CCN(c2ccccn2)CC1` (stereo not drawn) it is 9.49%.
As to `CCCOc1ccc(-c2c(C(=O)N/N=C/c3ccccc3OCC)nnn2-c2nonc2N)cc1`, the “hERG current change (%, negative = inhibition) at 1uM” value is 20.8%.
The figure for `N#Cc1ccc(CSc2ncnc3c2cnn3Cc2ccccc2)cc1` is 11.5%; for `O=C1c2cccc3cccc(c23)C(=O)N1CC1CCCO1` (stereo not drawn) it is 15.2%.

Values taken from PMC4336329 (PLoS ONE, 2015).
